According to the supplement of paper PMC9046079:
Where a name gives a salt, the structure may show the parent alone. ± gives the standard deviation of the averaged measurements. The list shows a part of the results.

Tests used:
[1] = test system: murine small intestinal organoids (ENR+CD Paneth differentiation); assay: cellular ATP (CellTiter-Glo 3D) relative to plate median (log10 fold change); higher = more viable cells; details: 6 d
[2] = test system: murine small intestinal organoids (ENR+CD Paneth differentiation); assay: carbachol-stimulated secreted lysozyme activity relative to plate median (log10 fold change); higher = more Paneth cell lysozyme secretion; details: 6 d, carbachol 10 µM
[3] = test system: murine small intestinal organoids (ENR+CD Paneth differentiation); assay: basal (non-stimulated) secreted lysozyme activity relative to plate median (log10 fold change); higher = more Paneth cell lysozyme secretion; details: 6 d
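Throughout, for basal (non-stimulated) secreted lysozyme activity relative to plate median: ISC-enriched organoid precursors grown as 2.5D pseudo-monolayer on Matrigel, compound given on day 0 and day 3, plate values LOESS-normalized before median fold change, three murine donors.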
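Throughout, for cellular ATP (CellTiter-Glo 3D) relative to plate median: 2.5D pseudo-monolayer culture of ISC-enriched organoids partly embedded atop Matrigel, compound added on day 0 and again on day 3, per-plate LOESS correction before median fold change.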

Row | SMILES | cellular ATP (log10) ([1]; 0.08 µM) | cellular ATP (log10) ([1]; 0.4 µM) | cellular ATP (log10) ([1]; 2 µM) | cellular ATP (log10) ([1]; 10 µM) | carbachol-stimulated secreted lysozyme activity (log10) ([2]; 0.08 µM) | carbachol-stimulated secreted lysozyme activity (log10) ([2]; 0.4 µM) | carbachol-stimulated secreted lysozyme activity (log10) ([2]; 2 µM) | carbachol-stimulated secreted lysozyme activity (log10) ([2]; 10 µM) | basal (log10) ([3]; 0.08 µM) | basal (log10) ([3]; 0.4 µM) | basal (log10) ([3]; 2 µM) | basal (log10) ([3]; 10 µM)
1 | COc1cc(-c2ncn(/C=C\C(=O)OC(C)C)n2)cc(C(F)(F)F)c1 | 0.116 ± 0.23 | 0.104 ± 0.22 | -0.995 ± 0.74 | -0.855 ± 0.92 | -0.0379 ± 0.097 | 0.284 ± 0.13 | -0.4 ± 0.071 | -0.158 ± 0.37 | -0.00566 ± 0.053 | 0.0971 ± 0.046 | -0.209 ± 0.06 | -0.0855 ± 0.22
2 | NC(=O)c1cccc(-c2cc(Nc3ccc(OC(F)(F)F)cc3)ncn2)c1 | 0.157 ± 0.24 | 0.0896 ± 0.4 | 0.0736 ± 0.12 | 0.101 ± 0.22 | 0.111 ± 0.072 | -0.116 ± 0.26 | -0.00525 ± 0.037 | -0.0498 ± 0.06 | 0.159 ± 0.15 | -0.0237 ± 0.18 | 0.0117 ± 0.068 | -0.0329 ± 0.035
3 | COc1ccc(-n2nc(C(N)=O)c3c2C(=O)N(c2ccc(N4CCCCC4=O)cc2)CC3)cc1 [Apixaban] | -0.0887 ± 0.14 | 0.111 ± 0.039 | -0.0603 ± 0.25 | -0.0773 ± 0.045 | 0.0759 ± 0.094 | 0.0384 ± 0.14 | 0.0319 ± 0.076 | -0.117 ± 0.03 | 0.00406 ± 0.051 | -0.0299 ± 0.038 | 0.0291 ± 0.1 | -0.0818 ± 0.053
4 | O=C(O)/C=C/c1ccc(Cn2ccnc2)cc1 [Ozagrel HCl] | 0.0494 ± 0.33 | 0.133 ± 0.25 | 0.183 ± 0.25 | 0.229 ± 0.26 | 0.0699 ± 0.18 | 0.107 ± 0.0014 | 0.145 ± 0.13 | 0.0316 ± 0.12 | 0.202 ± 0.24 | 5.96e-06 ± 0.03 | 0.0354 ± 0.031 | -0.00706 ± 0.094
5 | CN(C)CCCCC(=O)Nc1ccc(NC(=S)NC(=O)c2ccc(C(C)(C)C)cc2)cc1 [Tenovin-6] | -0.553 ± 1.3 | -0.168 ± 0.34 | -0.497 ± 0.48 | -0.705 ± 0.69 | -0.174 ± 0.35 | 0.0475 ± 0.0029 | -0.21 ± 0.32 | -0.259 ± 0.42 | -0.0487 ± 0.17 | 0.0467 ± 0.016 | -0.119 ± 0.19 | -0.112 ± 0.19
6 | C/C(=C\C(=O)Nc1ccccc1C(=O)O)c1ccc2ccccc2c1 | 0.223 ± 0.096 | -0.0472 ± 0.41 | -0.0336 ± 0.16 | 0.0302 ± 0.28 | 0.0539 ± 0.066 | 0.151 ± 0.095 | -0.0946 ± 0.09 | -0.148 ± 0.088 | 0.0323 ± 0.041 | 0.0433 ± 0.057 | -0.0135 ± 0.051 | -0.0616 ± 0.0064
7 | CNC(=O)c1ccccc1Nc1nc(Nc2ccc(N3CCOCC3)cc2OC)ncc1Cl | -0.748 ± 0.38 | -0.882 ± 0.64 | -0.817 ± 0.57 | -0.646 ± 0.43 | -0.5 ± 0.074 | -0.177 ± 0.35 | -0.259 ± 0.33 | -0.25 ± 0.34 | -0.292 ± 0.12 | -0.0714 ± 0.39 | -0.203 ± 0.19 | -0.158 ± 0.21
8 | O=C1NC(=O)/C(=C/c2ccc(-c3ccc(F)cc3O)o2)S1 | 0.139 ± 0.072 | -0.0739 ± 0.24 | -0.359 ± 0.52 | -0.204 ± 0.13 | 0.0101 ± 0.11 | 0.00164 ± 0.011 | -0.0309 ± 0.23 | 0.0226 ± 0.2 | 0.0699 ± 0.1 | -0.0422 ± 0.032 | -0.0798 ± 0.078 | -0.077 ± 0.0087
9 | COc1cc2c(cc1OC)[C@@H]1Cc3ccc(OC)c(OC)c3CN1CC2 [Rotundine] | 0.277 ± 0.24 | 0.164 ± 0.39 | 0.169 ± 0.12 | 0.222 ± 0.21 | 0.0917 ± 0.16 | 0.0419 ± 0.059 | 0.258 ± 0.2 | 0.11 ± 0.19 | 0.14 ± 0.076 | 0.147 ± 0.18 | 0.0715 ± 0.046 | 0.109 ± 0.12
10 | NC(=O)Nc1cc(-c2cccc(F)c2)sc1C(=O)N[C@H]1CCCNC1 | 0.0542 ± 0.35 | -0.384 ± 0.17 | -0.804 ± 0.43 | -1.36 ± 0.5 | -0.0306 ± 0.069 | -0.2931 ± 0.0009 | -0.4357 ± 0.0027 | -0.425 ± 0.013 | 0.00964 ± 0.072 | -0.159 ± 0.091 | -0.211 ± 0.11 | -0.22 ± 0.094
11 | Cc1ccc2c(=O)c3cccc(CC(=O)O)c3oc2c1C [DMXAA (Vadimezan)] | -0.568 ± 0.62 | -0.629 ± 0.61 | -0.477 ± 0.69 | -0.23 ± 0.24 | -0.106 ± 0.16 | 0.00293 ± 0.27 | -0.109 ± 0.047 | -0.147 ± 0.03 | -0.00747 ± 0.13 | -0.0364 ± 0.071 | -0.0384 ± 0.056 | -0.0311 ± 0.091
12 | O=[N+]([O-])c1ccc2c(c1)S(=O)(=O)C=C2 [Stattic] | 0.00756 ± 0.29 | 0.0163 ± 0.2 | 0.0464 ± 0.11 | 0.00159 ± 0.28 | 0.0832 ± 0.21 | 0.139 ± 0.02 | 0.029 ± 0.13 | 0.00153 ± 0.086 | 0.0711 ± 0.13 | 0.00701 ± 0.069 | 0.046 ± 0.058 | -0.00258 ± 0.045
13 | Nc1cccc(-c2cc3c(Oc4cccc(O)c4)ncnc3[nH]2)c1 | 0.00284 ± 0.76 | 0.236 ± 0.3 | 0.0768 ± 0.047 | -0.967 ± 0.72 | -0.0993 ± 0.33 | 0.133 ± 0.21 | 0.0577 ± 0.044 | -0.191 ± 0.24 | -0.0178 ± 0.19 | 0.0933 ± 0.081 | 0.0408 ± 0.099 | -0.161 ± 0.16
14 | C[C@H](NCc1ccc(OCc2cccc(F)c2)cc1)C(N)=O [Safinamide Mesylate] | 0.355 ± 0.17 | 0.26 ± 0.18 | 0.282 ± 0.2 | 0.289 ± 0.27 | 0.284 ± 0.31 | 0.125 ± 0.091 | 0.182 ± 0.2 | 0.0972 ± 0.13 | 0.125 ± 0.11 | 0.0896 ± 0.022 | 0.286 ± 0.14 | 0.104 ± 0.037
15 | Cc1ccc(S(=O)(=O)OCC(=O)Nc2ccc(C(=O)O)c(O)c2)cc1 | 0.323 ± 0.16 | 0.0613 ± 0.12 | 0.000827 ± 0.23 | -0.181 ± 0.25 | -0.0501 ± 0.024 | 0.262 ± 0.098 | 0.0373 ± 0.2 | 0.0453 ± 0.2 | 0.0116 ± 0.071 | 0.0632 ± 0.039 | 0.0532 ± 0.058 | 0.0359 ± 0.066
16 | CC(=O)Nc1nc2c(Oc3cc(-c4ccc(C(F)(F)F)cc4)ncn3)cccc2s1 | 0.161 ± 0.13 | 0.113 ± 0.39 | 0.112 ± 0.11 | 0.0565 ± 0.15 | -0.0355 ± 0.033 | 0.016 ± 0.086 | 0.00539 ± 0.0044 | 0.28 ± 0.14 | 0.0204 ± 0.073 | 0.0599 ± 0.1 | -0.00584 ± 0.011 | 0.0307 ± 0.14
17 | O=c1cc(-c2cccc3c2Sc2ccccc2S3)oc(N2CCOCC2)c1 | 0.524 ± 0.15 | 0.477 ± 0.054 | 0.551 ± 0.19 | 0.541 ± 0.13 | 0.191 ± 0.069 | 0.225 ± 0.16 | 0.165 ± 0.0054 | 0.0492 ± 0.14 | 0.115 ± 0.011 | 0.103 ± 0.021 | 0.116 ± 0.04 | 0.0737 ± 0.088
18 | Oc1ccc(Nc2nc(-c3ccc(Cl)cc3)cs2)cc1 | 0.205 ± 0.17 | 0.175 ± 0.2 | 0.183 ± 0.17 | -0.356 ± 0.28 | 0.036 ± 0.044 | 0.15 ± 0.1 | 0.0315 ± 0.055 | -0.155 ± 0.33 | 0.0709 ± 0.11 | 0.0868 ± 0.025 | 0.0412 ± 0.039 | -0.11 ± 0.22
19 | O=S(=O)(c1ccccc1)c1cnc2c(N3CCNCC3)cccc2c1 | -0.348 ± 0.18 | -0.199 ± 0.17 | -0.367 ± 0.34 | -0.411 ± 0.27 | -0.00905 ± 0.05 | -0.132 ± 0.28 | -0.148 ± 0.26 | -0.226 ± 0.23 | -0.00336 ± 0.12 | -0.0874 ± 0.13 | -0.0129 ± 0.23 | -0.0726 ± 0.2
